Test results taken from patent US7094775B2, “Method of treating breast cancer using a combination of vitamin D analogues and other agents” (priority 2004, dated 2006).

Key:
[1] = tested on: human MCF-7 cancer cell lines; conditions: for overall interaction with 1α,24-dihydroxyvitamin D2 in inhibiting growth of human breast cancer cells: summary statement of the description
vitamin D receptor (VDR) = target: T1, vitamin D receptor (VDR) (Homo sapiens, UniProt P11473); assay: Vitamin D-inducible growth hormone production in COS-1 cells co-transfected with pSG5-hVDR1/3 and p(CT4)4TKGH; conditions: for Total GH Production: averages of duplicate determinations
T1 sequence (P11473 1-427): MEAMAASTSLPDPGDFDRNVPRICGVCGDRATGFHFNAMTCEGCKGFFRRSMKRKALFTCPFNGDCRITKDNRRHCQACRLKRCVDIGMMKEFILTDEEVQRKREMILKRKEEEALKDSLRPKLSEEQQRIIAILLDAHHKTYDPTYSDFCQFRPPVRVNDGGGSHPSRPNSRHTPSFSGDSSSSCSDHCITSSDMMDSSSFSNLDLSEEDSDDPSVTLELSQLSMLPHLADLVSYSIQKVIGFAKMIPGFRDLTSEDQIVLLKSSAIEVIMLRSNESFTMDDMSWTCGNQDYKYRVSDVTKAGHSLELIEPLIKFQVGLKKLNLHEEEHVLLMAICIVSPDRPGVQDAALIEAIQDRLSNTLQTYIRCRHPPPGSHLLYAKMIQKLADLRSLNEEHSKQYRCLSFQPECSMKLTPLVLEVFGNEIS

Compound: COc1cc([C@@H]2c3cc4c(cc3[C@@H](O[C@@H]3O[C@@H]5CO[C@@H](C)O[C@H]5[C@H](O)[C@H]3O)[C@H]3COC(=O)[C@H]23)OCO4)cc(OC)c1O [etoposide]
- interaction with 1,24(OH)2D2, isobologram (FIG. 3) [1]: additive or mild synergistic effect
- interaction with 1,24(OH)2D2, growth inhibition (FIG. 4) ([1]; etoposide 0.1 μM, 1 μM, 10 μM and 100 μM with 0.1 nM 1,24(OH)2D2): additive to mild synergistic growth inhibition
- overall interaction with 1α,24-dihydroxyvitamin D2 in inhibiting growth of human breast cancer cells [1]: additively inhibit

Compound: C=C1/C(=C\C=C2/CCC[C@]3(C)[C@@H]([C@H](C)/C=C/[C@](C)(O)C(C)C)CC[C@@H]23)C[C@@H](O)C[C@@H]1O [1α,24(R)—(OH)2D2, 1α,24(R)-dihydroxy-vitamin D2]
- activity in GH reporter system compared with 25-OH-D3 (vitamin D receptor (VDR)): significantly more activity
- Total GH Production (vitamin D receptor (VDR); molar concentration 1 × 10^−7): 1300 ng/mL
- Total GH Production (vitamin D receptor (VDR); molar concentration 1 × 10^−8): 1100 ng/mL
- Net vitamin D inducible GH-production (vitamin D receptor (VDR); molar concentration 1 × 10^−9): 36 ng/mL
- Total GH Production (vitamin D receptor (VDR); molar concentration 1 × 10^−9): 80 ng/mL

Compound: C=C1CC[C@H](O)C/C1=C/C=C1\CCC[C@]2(C)[C@@H]([C@H](C)CCCC(C)(C)O)CC[C@@H]12 [25-OH—D3, reference compound]
- Total GH Production (vitamin D receptor (VDR); molar concentration 1 × 10^−6): 1100 ng/mL

Compound: O=C(O)CCCc1ccc(N(CCCl)CCCl)cc1 [chlorambucil]
- interaction with 1,24(OH)2D2, growth inhibition (FIG. 17) ([1]; chlorambucil in various concentrations with 0.1 nM 1α,24-dihydroxyvitamin D2): antagonistic to mild additive growth inhibition

Compound: O=c1[nH]cc(F)c(=O)[nH]1 [5-fluorouracil]
- overall interaction with 1α,24-dihydroxyvitamin D2 in inhibiting growth of human breast cancer cells [1]: additively inhibit

Compound: C=C1/C(=C\C=C2/CCC[C@]3(C)[C@@H]([C@H](C)/C=C/[C@@](C)(O)C(C)C)CC[C@@H]23)C[C@@H](O)C[C@@H]1O [1α,24(S)—(OH)2D2, 1α,24(S)-dihydroxyvitamin D2]
- activity in GH reporter system compared with 1α,25-(OH)2D3 (vitamin D receptor (VDR)): nearly the same activity
- activity in GH reporter system compared with 25-OH-D3 (vitamin D receptor (VDR)): significantly more activity

Compound: N.N.[Cl][Pt][Cl] [cisplatin]
- overall interaction with 1α,24-dihydroxyvitamin D2 in inhibiting growth of human breast cancer cells [1]: synergistically inhibits

Compound: CC(=O)O[C@H]1C(=O)[C@@]2(C)[C@H]([C@H](OC(=O)c3ccccc3)[C@]3(O)C[C@H](OC(=O)[C@H](O)[C@@H](NC(=O)c4ccccc4)c4ccccc4)C(C)=C1C3(C)C)[C@]1(OC(C)=O)CO[C@@H]1C[C@@H]2O [paclitaxel]
- overall interaction with 1α,24-dihydroxyvitamin D2 in inhibiting growth of human breast cancer cells [1]: synergistically inhibits

Compound: CS(=O)(=O)OCCCCOS(C)(=O)=O [busulfan]
- interaction with 1,24(OH)2D2, growth inhibition (FIG. 20) ([1]; busulfan 100 μM with 0.1 nM 1,24(OH)2D2): mild synergistic growth inhibition
- overall interaction with 1α,24-dihydroxyvitamin D2 in inhibiting growth of human breast cancer cells [1]: additively inhibit

Compound: CC/C(=C(\c1ccccc1)c1ccc(OCCN(C)C)cc1)c1ccccc1 [tamoxifen]
- overall interaction with 1α,24-dihydroxyvitamin D2 in inhibiting growth of human breast cancer cells [1]: additively inhibit
- interaction with 1,24(OH)2D2, growth inhibition (FIG. 13) ([1]; tamoxifen 10 μM and 100 μM with 0.01 nM 1,24(OH)2D2): additive to mild synergistic growth inhibition
- interaction with 1,24(OH)2D2, growth inhibition (FIG. 14) ([1]; tamoxifen 10 μM and 100 μM with 0.1 nM 1,24(OH)2D2): additive to mild synergistic growth inhibition

Compound: COc1cccc2c1C(=O)c1c(O)c3c(c(O)c1C2=O)C[C@@](O)(C(=O)CO)C[C@@H]3O[C@H]1C[C@H](N)[C@H](O)[C@H](C)O1 [doxorubicin]
- interaction with 1,24(OH)2D2, growth inhibition (FIG. 9) ([1]; doxorubicin 0.001 μM, 0.01 μM, 0.1 μM, 1 μM, 10 μM and 100 μM with 1 nM 1,24(OH)2D2): synergistic growth inhibition
- interaction with 1,24(OH)2D2, growth inhibition (FIG. 10) ([1]; doxorubicin 0.01 μM, 0.01 μM, 1 μM, 10 μM and 100 μM with 10 nM 1,24(OH)2D2): synergistic growth inhibition
- interaction with 1,24(OH)2D2, growth inhibition (FIG. 7) ([1]; doxorubicin 0.01 μM, 0.1 μM, 1 μM, 10 μM and 100 μM with 0.01 nM 1,24(OH)2D2): synergistic growth inhibition
- interaction with 1,24(OH)2D2, growth inhibition (FIG. 8) ([1]; doxorubicin 1 μM, 10 μM and 100 μM with 0.1 nM 1,24(OH)2D2): synergistic growth inhibition
- interaction with 1,24(OH)2D2, isobologram (FIG. 6) ([1]; doxorubicin about 0 to 0.15 μM with 1,24(OH)2D2 of various concentrations): synergistic effect
- overall interaction with 1α,24-dihydroxyvitamin D2 in inhibiting growth of human breast cancer cells [1]: synergistically inhibits

Compound: N.N.O=C([O-])C1(C(=O)[O-])CCC1.[Pt+2] [carboplatin]
- overall interaction with 1α,24-dihydroxyvitamin D2 in inhibiting growth of human breast cancer cells [1]: additively inhibit
